This note sets out measurements from paper PMC6919601, “Identification of Plasmodium dipeptidyl aminopeptidase allosteric inhibitors by high throughput screening” (PLoS ONE, 2019).

The campaign covered roughly 110,000 compounds. About 230 (0.21%) showed an effect of 50% or more. This is one part of the list.
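Note: 30 min substrate incubation versus DMSO and 10 µM JCP410 controls.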

The experiment deals with DPAP1 (Plasmodium falciparum, UniProt Q8IIJ9). Briefly: primary screen, percent inhibition; read by cleavage of a fluorogenic dipeptide substrate; higher = more effect of the substance. Further details: species or system P. falciparum D10 trophozoite lysates; single well.
Chain of DPAP1 (Q8IIJ9 whole entry, looked up): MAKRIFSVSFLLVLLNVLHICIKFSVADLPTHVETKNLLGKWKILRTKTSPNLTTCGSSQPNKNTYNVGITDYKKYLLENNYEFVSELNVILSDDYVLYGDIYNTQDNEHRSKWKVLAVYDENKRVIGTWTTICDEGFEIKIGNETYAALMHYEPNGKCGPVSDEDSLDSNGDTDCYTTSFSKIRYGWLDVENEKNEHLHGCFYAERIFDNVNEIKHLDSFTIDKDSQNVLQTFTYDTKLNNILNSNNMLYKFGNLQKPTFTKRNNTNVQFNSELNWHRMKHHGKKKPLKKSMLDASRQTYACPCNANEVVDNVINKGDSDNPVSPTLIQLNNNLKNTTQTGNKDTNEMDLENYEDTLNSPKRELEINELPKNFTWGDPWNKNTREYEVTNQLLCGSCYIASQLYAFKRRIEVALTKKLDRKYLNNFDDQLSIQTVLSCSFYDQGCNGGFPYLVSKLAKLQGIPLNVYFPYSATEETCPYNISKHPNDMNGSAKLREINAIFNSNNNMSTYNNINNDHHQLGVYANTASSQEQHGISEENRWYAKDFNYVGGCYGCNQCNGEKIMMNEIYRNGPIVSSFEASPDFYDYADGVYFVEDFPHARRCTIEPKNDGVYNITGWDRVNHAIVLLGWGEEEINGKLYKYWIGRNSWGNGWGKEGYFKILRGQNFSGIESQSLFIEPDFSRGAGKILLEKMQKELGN
Consider `Clc1ccc(-c2csc(Nc3ncccn3)n2)cc1`, for which the “% Inhibition @ 10 uM” value is listed as 1.92%.

As for `CCCc1ccc(OCc2ccc(C(=O)Nc3nccs3)cc2)cc1`, the “% Inhibition @ 10 uM” value is 0.413%. To `COc1cc(C)c(S(=O)(=O)N2CCN=C2c2ccccc2)cc1C` belongs -3.5%. In the case of `COCCCNC(=O)c1cc2c(=O)n3cc(C)ccc3nc2n(Cc2cccnc2)c1=N`, the “% Inhibition @ 10 uM” value is 0.279%. The value for `COc1ccc(-c2nnc(NC(=O)c3ccco3)s2)cc1OC` was 2.3%.

As for `CCN1CCN(c2ncnc3scc(-c4ccc(OC)cc4)c23)CC1`, the “% Inhibition @ 10 uM” value came out at 1.57%. To `Nc1ccn(-c2ccc(F)cc2)c(=O)c1` belongs 0.266%; to `CC1=C(C(N)=O)C(c2cccc(F)c2)n2ncnc2N1` (stereo not shown), -0.403%. The value for `COCC(C)NC(=O)C1=CC(c2ccc(OC)c(OC)c2)=NS(=O)(=O)N1C` (stereo not shown) was -6.59%. The value for `CS(=O)(=O)N1CCC(C(=O)N2CCN(C(c3ccccc3)c3ccccc3)CC2)CC1` was 2.84%.

On to `CCN(CC)C(=O)C1CCCN(Cc2ccc3c(c2)OCO3)C1` (stereo not shown), for which the “% Inhibition @ 10 uM” value was determined as 1.55%.

Regarding `Cc1ccsc1S(=O)(=O)c1ccccc1`, the “% Inhibition @ 10 uM” value is reported as -4.01%. To `Cc1cccc(CNc2nc3nc4c(c(O)n3n2)CCC4)c1` belongs -6.04%; to `COc1cc(C(=O)NCC(=O)O)cc(OC)c1OC`, 5.02%; to `CCc1cccc(CC)c1NC(=O)Cn1cnc2c(Cl)cc(Cl)cc2c1=O`, 1.34%. On to `CC(C)CC(=O)N1CCC(c2c[nH]c3ccccc23)(c2c[nH]c3ccccc23)CC1`, for which the “% Inhibition @ 10 uM” value was determined as 10%. The value for `Cc1ccc(S(=O)(=O)c2nnn3c2nc(N2CCCC(C)C2)c2ccccc23)cc1` (stereo not shown) was 0.291%. The value for `COc1ccc(NC(=O)c2c(-c3c(F)cccc3Cl)noc2C)cc1` was -0.469%. To `CC1(C)CC(=O)C2=C(C1)OC(N)=C(C#N)C2c1ccc(OC(F)F)cc1` (stereo not shown) belongs -0.941%. Consider `O=C(O)c1cc2ccccc2cc1N1C(=O)c2ccccc2C1=O`, for which the “% Inhibition @ 10 uM” value was 2.68%. The value for `O=C(N/C(=C\c1ccccc1)C(=O)N1CCCCC1)c1ccc(Br)o1` was 0.746%; that for `Cc1ccccc1Cn1c2ccccc2c2cnn(CC(=O)NCCN3CCOCC3)c(=O)c21` was -3.35%; that for `CCN(c1ccccc1)S(=O)(=O)c1ccc(NC(=O)COc2ccccc2)cc1` was 3.21%.

Take `CCOC(=O)c1c(NC(=O)c2cccc(F)c2)sc2c1CCCC2`: the “% Inhibition @ 10 uM” value came out at 1.12%. Turning to `CCN(Cc1ccccc1)C(=O)Cn1ncc2c(=O)oc3ccccc3c21`, the “% Inhibition @ 10 uM” value is given as -3.06%. To `Cc1ccccc1Cn1c(CCNC(=O)c2ccccc2)nc2ccccc21` belongs -5.77%; to `c1ccc(CN2CCN(c3ncnc4c3nc3n4CCCCC3)CC2)cc1`, -1.07%. The value for `COc1ccc(CCNC(=O)CSc2nc3cccnc3[nH]2)c(OC)c1` was 3.24%; that for `COc1ccccc1-c1cccc(C(=O)N[C@@H](CC(C)C)C(=O)NCC#N)c1` was -3.04%; that for `Nc1c(-c2nc(-c3ccc4c(c3)OCO4)no2)nnn1-c1ccc(F)c(Cl)c1` was 2.45%.

With `N#CC1=C(N)OC2=C(C(=O)CCC2)C1c1cccc(O)c1` (stereo not shown), the “% Inhibition @ 10 uM” value is given as -1.8%. To `COc1ccc(C2CC(=O)N3CN(Cc4ccccc4)CSC3=C2C#N)cc1OC` (stereo not shown) belongs 6.73%. The value for `COc1ccc(CNC(=O)C(C)n2ccc3cc(S(=O)(=O)N4CCCC4)ccc32)c(OC)c1` (stereo not shown) was 2.48%; that for `Nc1c(C(=O)c2ccccc2)sc2nc3c(cc12)CCC3` was -4.61%; that for `COc1ccc(C2C3=C(O)CCCC3=Nc3[nH]nc(-c4ccc(Cl)cc4)c32)cc1OC` (stereo not shown) was 0.244%. The value for `CCc1c(O)cc2n(c1=O)-c1ccc(Cl)cc1C2(C)C` was -1.07%; that for `CCOc1ccc(-c2cc(C(=O)O)c3c(-c4ccc(C)cc4)[nH]nc3n2)cc1` was -0.901%; that for `Cc1ccc(/C=C2/N=C(c3ccc(C)c(C)c3)OC2=O)o1` was 0.997%. For `COc1ccc(CCNC(=O)CCS(=O)(=O)c2ccc(Br)s2)cc1OC`, the “% Inhibition @ 10 uM” value was 0.0654%.

Regarding `CCc1cccc(C)c1NC(=O)CN(c1ccc(C)cc1C)S(C)(=O)=O`, the “% Inhibition @ 10 uM” value came to 11.5%.

As for `O=C(CSc1nc2ccccc2nc1N1CCCCC1)NCc1ccccc1Cl`, the “% Inhibition @ 10 uM” value came out at 3.36%.

Regarding `O=C(Nc1ccc2c(c1)OCO2)c1ccc(Oc2ccccc2)cc1`, the “% Inhibition @ 10 uM” value is recorded as 4.57%. The value for `Cc1[nH]c2ccccc2c1CCN1C(=O)OC2(CCCCC2)C1(C)O` (stereo not shown) was -0.958%; that for `Cc1c(N=C(N)N)c(=O)n(-c2ccccc2)n1C` was 4.65%; that for `COc1ccc(CN2CCN(c3ccccc3C)CC2)cc1O` was -1.77%. `CC1(C)CC2=NC3=C(C(=O)CC(C)(C)C3)C(c3cccs3)C2=C(O)C1` (stereo not shown): the “% Inhibition @ 10 uM” value is on record as -3.19%.

For the compound `O=C(c1cc(-c2ccc3c(c2)OCO3)nc2ccccc12)N1CCCC1`, the “% Inhibition @ 10 uM” value is 2.09%. The value for `CC(=O)C(Sc1nnc(-c2c[nH]c3ccccc23)n1C)C(C)=O` was 5.77%. In the case of `O=C1CC(c2ccccc2)CC(=O)C1=CNc1ccccc1Oc1ccccc1` (stereo not shown), the “% Inhibition @ 10 uM” value amounted to 2.45%. To `CCc1ccc2c(c1)C(O)(CC(=O)c1ccccc1)C(=O)N2` (stereo not shown) belongs -7.9%. To `COc1cccc(C2=NOC(C(=O)Nc3cccnc3Cl)C2)c1OC` (stereo not shown) belongs -2.16%.

With `Clc1ccccc1N1CCN(Cc2ccc(Br)s2)CC1`, the “% Inhibition @ 10 uM” value is on record as 1.48%. To `O=C(CSCc1ccc(F)cc1)NCc1cccs1` belongs -1.21%; to `CC1CCCN(C(=O)CSc2nc3ccsc3c(=O)n2Cc2ccccc2Cl)C1` (stereo not shown), -4.58%. The value for `COc1cccc(-c2cn3c(n2)sc2cc(C(=O)NCc4ccccn4)ccc23)c1` was 5.11%; that for `CCc1noc2c1/C(=N\O)CC(C)(C)C2` was -0.807%. To `COCCN1C(=O)c2oc3cc(C)c(C)cc3c(=O)c2C1c1ccc(C(=O)OC)cc1` (stereo not shown) belongs 0.628%; to `N#Cc1nc(/C=C/c2ccc(F)cc2)oc1NCc1ccco1`, -4.39%.

With `CN1CCN(C(=O)c2ccc(Cl)c(Cl)c2)CC1`, the “% Inhibition @ 10 uM” value is given as 6.18%. To `Cc1cc(C)cc(N(CC(=O)Nc2ccccc2C(=O)N2CCOCC2)S(C)(=O)=O)c1` belongs 1.71%; to `COc1ccc(C(=O)NC2=NCCS2)cc1OC`, 17.4%; to `CC(C)(C)c1cc(CO)c(O)c(CO)c1`, -2.77%. To `COc1cccc(C2CC(c3ccc(Br)cc3)=NN2C(=O)c2ccncc2)c1OC` (stereo not shown) belongs 0.131%; to `Cc1c(Cl)cccc1N(CC(=O)Nc1ccccc1C(=O)O)S(C)(=O)=O`, -10.2%; to `Cc1cccc(OCCNC(=O)CCc2ccccc2)c1`, -0.303%. The value for `CC(C)NCC(O)COc1ccc2ccccc2c1` (stereo not shown) was 2.86%.

Turning to `Cc1ccc(NC(=O)CC2Nc3ccccc3NC2=O)c(C)c1` (stereo not shown), the “% Inhibition @ 10 uM” value is 3.24%. The value for `O=C(CSc1nc2ccccc2nc1N1CCOCC1)N1CCN(c2ccccn2)CC1` was -3.53%.

Regarding `CCC(C)(C)C1CCc2c(sc(NC(=O)c3ccc(C)o3)c2C(N)=O)C1` (stereo not shown), the “% Inhibition @ 10 uM” value is on record as -3.04%.

Turning to `Cc1cc(C)nc(NS(=O)(=O)c2ccc(NC(=O)CCc3ccccc3)cc2)n1`, the “% Inhibition @ 10 uM” value was determined as 5.46%.

In the case of `CCCn1c2ccccc2c2cnn(CC(=O)N3CCN(C(=O)c4ccco4)CC3)c(=O)c21`, the “% Inhibition @ 10 uM” value is on record as -3.22%.

`COc1cc(OC)c2c(C)c(CC(=O)NCc3ccc4c(c3)OCO4)c(=O)oc2c1`: the “% Inhibition @ 10 uM” value is on record as 5.68%. The value for `CCOC(=O)C1=NNC2C(=O)N(c3ccc(F)cc3)C(=O)C12` (stereo not shown) was -5.48%; that for `Cc1cccc(C)c1NC(=O)c1cnn(-c2ccccc2)c1C` was -2.74%. The value for `CCN(CC)C(=O)C1CCCN(C(=O)CN2C(=O)c3ccccc3C2=O)C1` (stereo not shown) was -1.46%; that for `CCCCNC(=O)c1cc(-c2ccc(C)o2)nc2ccccc12` was 7.03%. To `CCc1ccc(C(=O)c2cnc3cc4c(cc3c2N2CCCC2)OCO4)cc1` belongs -4.68%; to `Cc1ccc2c(c1)-c1onc(C(=O)N(Cc3ccco3)C3CCCCC3)c1CO2`, -0.539%; to `c1cncc(Nc2nc(-c3cccs3)cs2)c1`, 3.38%.

`COc1ccc(/C=C/C2=NN(c3ccc(Br)cc3Br)C(c3ccc(OC)cc3)C2)cc1` (stereo not shown): the “% Inhibition @ 10 uM” value was -6.11%. The value for `CC1(C)Cc2ccccc2C(N)=C1C#N` was 0.827%; that for `COc1ccc(OC)c(S(=O)(=O)/N=C2\C=C3N(CCO)CCOC3(O)c3ccccc32)c1` (stereo not shown) was 0.0539%.

For `O=C(CCn1c(=S)[nH]c2c([nH]c3ccccc32)c1=O)NCc1ccccc1`, the “% Inhibition @ 10 uM” value is on record as -1.29%. The value for `Cc1ccc2[nH]c3c(c2c1)CCC3C(N)=O` (stereo not shown) was 1.57%; that for `CC(Oc1ccccc1F)C(=O)NC1CCS(=O)(=O)C1` (stereo not shown) was 3.57%. The value for `COc1ccc(-c2ccc(CNCCNC(=O)c3nonc3N)o2)cc1Cl` was 0.00706%; that for `COc1ccc(CCN2CC(C(=O)NC3CCCCC3)CC2=O)cc1OC` (stereo not shown) was 1.62%; that for `CSc1ncccc1C(=O)NCCc1ccccc1F` was 0.238%. To `CCSC1=NSC2=NC(=O)/C(=C\c3c(C)[nH]c4ccccc34)C(=N)N12` belongs 4.79%; to `Cc1ccc(CN2CC(C(=O)O)CC2=O)cc1` (stereo not shown), 0.121%; to `COc1ccc(/C=C/C(=O)c2ccc(C)o2)cc1`, 7.24%. On to `COc1ccccc1CNC(=O)c1ccc2snnc2c1`, for which the “% Inhibition @ 10 uM” value is recorded as -0.0235%.

`CC(=O)c1cccc(NC(=O)COc2ccc(Cl)cc2Cl)c1`: the “% Inhibition @ 10 uM” value is -5.46%. To `O=C(CN1N=C(c2ccc(Cl)cc2)CCC1=O)NCCN1CCN(Cc2ccccc2)CC1` belongs 8.32%; to `CSC1=C(C#N)C(c2cccc3ccccc23)CC(=O)N1` (stereo not shown), 6.95%; to `CC(C)C[C@H](NC(=O)c1ccc(N(C)c2nc(-c3ccncc3)cs2)cc1)C(=O)NCC#N`, 4.63%. The value for `O=C(c1ccc([N+](=O)[O-])cc1)N1CCN(c2ccccc2)CC1` was -1.22%; that for `CCCc1nc2c([nH]1)OC(N)=C(C#N)C2c1cccnc1` (stereo not shown) was -2.53%; that for `COC(=O)c1cc(C)c(-c2ccccc2)[nH]1` was -1.75%. To `c1ccc2c(c1)nnn2Cc1nnc2sc(-c3ccc4c(c3)OCO4)nn12` belongs 2.29%.
